Measurements from the supplement of paper PMC10126150.
Values marked as one replicate rest on one cluster of the flow cell; about a third of the high ones do not repeat.
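Note: ATP exposure 15 min at 22 °C before imaging.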

These sequences were tested on ATP (assay: switch fluorescence ratio, 500 uM ATP over buffer (Cy3 cluster intensity, sum of 5 cycles each) (fold (ratio)); higher = stronger signal-on switching upon ATP binding; sequences stand for … in TCGTCGGCAGCGTCAGATGTGTATAAGAGACAGTTTTTTTTTTTTTTTTTTTTTTTTT…TC). Details: aptamer strand: ATP DNA aptamer (quencher-CACCTGGGGGAGTATTGCGGAGGAAGG + anchor), 100 nM annealed; ATP concentration: 500 uM; one replicate.
How it was run: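 For every switch-domain sequence, the fluorescence ratio is the mean of per-cluster values, each being summed target-cycle Cy3 intensity over summed buffer-cycle Cy3 intensity. Clusters outside 100-1000 RFU were excluded. On a modified Illumina MiSeq flow-cell, the Cy3-labelled switching-strand clusters were annealed to 100 nM quencher-labelled ATP aptamer, imaged in selection buffer and then after 15 min with 500 uM ATP at 22 °C. Five such cycles were run, with NaOH stripping and re-annealing between them.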
TGAAGCTTTC gave a switch fluorescence ratio of 1.68.
With TGAAGTATTG the switch fluorescence ratio was 1.01.
Sequence TGAAGTTCAG has a switch fluorescence ratio of 0.972.
Sequence TGAATACCAC has a switch fluorescence ratio of 1.
TGAATAGTAA showed a switch fluorescence ratio of 1.01.
In the case of TGAATCGCAA, the switch fluorescence ratio is reported as 4.8.
Work on TGAATGTGCA yielded a switch fluorescence ratio of 0.997.
TGAATTAATC showed a switch fluorescence ratio of 0.972.
TGAATTCGGT showed a switch fluorescence ratio of 0.972.
TGACAACGTC was tested, and the switch fluorescence ratio was 0.979.
TGACACCGAG gave a switch fluorescence ratio of 1.1.
TGACAGTCTC gave a switch fluorescence ratio of 0.958.
For TGACAGTTTC, the switch fluorescence ratio was 1.01.
TGACAGTTTG was tested, and the switch fluorescence ratio was 0.987.
TGACATGTAC was tested, and the switch fluorescence ratio was 1.24.
With TGACCACCCT the switch fluorescence ratio was 1.17.
TGACCACTA was tested, and the switch fluorescence ratio was 1.03.
Work on TGACCAGCAT yielded a switch fluorescence ratio of 1.13.
For TGACCGTGT, the switch fluorescence ratio was 0.97.
For TGACCTGTTT, the switch fluorescence ratio was 1.
TGACCTTCGT gave a switch fluorescence ratio of 1.35.
TGACCTTTGA showed a switch fluorescence ratio of 1.04.
With TGACCTTTGC the switch fluorescence ratio was 1.05.
Work on TGACGAATTA yielded a switch fluorescence ratio of 1.04.
Sequence TGACGATTC has a switch fluorescence ratio of 1.98.
TGACGCCAAT showed a switch fluorescence ratio of 1.21.
Work on TGACGCTTAG yielded a switch fluorescence ratio of 1.14.
Sequence TGACGGCAAT has a switch fluorescence ratio of 1.6.
Sequence TGACGGTTTG has a switch fluorescence ratio of 1.02.
Sequence TGACGTAATC has a switch fluorescence ratio of 4.26.
TGACGTGAC was tested, and the switch fluorescence ratio was 1.14.
For TGACGTTGTC, the switch fluorescence ratio was 0.989.
TGACTAATAT gave a switch fluorescence ratio of 0.982.
In the case of TGACTAGATC, the switch fluorescence ratio is reported as 1.02.
TGACTCATGA was tested, and the switch fluorescence ratio was 0.999.
Sequence TGACTCGGTC has a switch fluorescence ratio of 0.969.
In the case of TGACTCGTGG, the switch fluorescence ratio is reported as 0.99.
For TGACTCTGCT, the switch fluorescence ratio was 1.15.
TGACTGGTCG was tested, and the switch fluorescence ratio was 0.974.
Work on TGACTTCAAT yielded a switch fluorescence ratio of 1.01.
Sequence TGACTTGTCC has a switch fluorescence ratio of 1.05.
With TGACTTTGCG the switch fluorescence ratio was 0.984.
Sequence TGAGAAAGTT has a switch fluorescence ratio of 1.
With TGAGAAGCCG the switch fluorescence ratio was 1.05.
Work on TGAGAATAGA yielded a switch fluorescence ratio of 1.03.
Sequence TGAGAATATG has a switch fluorescence ratio of 0.993.
Sequence TGAGAATATT has a switch fluorescence ratio of 0.995.
TGAGACACT was tested, and the switch fluorescence ratio was 1.
TGAGACATTA was tested, and the switch fluorescence ratio was 1.05.
With TGAGACGTCA the switch fluorescence ratio was 1.02.
TGAGAGGCAA gave a switch fluorescence ratio of 1.22.
In the case of TGAGAGTGTG, the switch fluorescence ratio is reported as 0.993.
In the case of TGAGATCCGT, the switch fluorescence ratio is reported as 1.02.
TGAGATGTGG showed a switch fluorescence ratio of 0.975.
With TGAGCAGGGT the switch fluorescence ratio was 1.05.
TGAGCAGTCG showed a switch fluorescence ratio of 0.966.
In the case of TGAGCATTCA, the switch fluorescence ratio is reported as 1.04.
Work on TGAGCCCTAC yielded a switch fluorescence ratio of 1.11.
TGAGCCTCAG gave a switch fluorescence ratio of 0.966.
TGAGCTCAAG gave a switch fluorescence ratio of 0.994.
In the case of TGAGCTTGCA, the switch fluorescence ratio is reported as 0.985.
TGAGGAAGAG gave a switch fluorescence ratio of 0.99.
Work on TGAGGAGCCT yielded a switch fluorescence ratio of 1.04.
Work on TGAGGCAATC yielded a switch fluorescence ratio of 4.16.
In the case of TGAGGCGAAC, the switch fluorescence ratio is reported as 1.33.
For TGAGGCTTGC, the switch fluorescence ratio was 0.933.
With TGAGGCTTGT the switch fluorescence ratio was 0.901.
TGAGGGAATG showed a switch fluorescence ratio of 1.02.
TGAGGGACG was tested, and the switch fluorescence ratio was 0.988.
Work on TGAGGGGGTC yielded a switch fluorescence ratio of 0.994.
TGAGGGTTAG showed a switch fluorescence ratio of 1.03.
For TGAGGTATGG, the switch fluorescence ratio was 0.999.
TGAGGTCAG was tested, and the switch fluorescence ratio was 0.964.
Work on TGAGGTTCAC yielded a switch fluorescence ratio of 1.39.
Sequence TGAGGTTGG has a switch fluorescence ratio of 0.937.
TGAGTACGT gave a switch fluorescence ratio of 1.01.
